Data taken from PubChem BioAssay AID504832 (National Center for Advancing Translational Sciences (NCATS), 2011).
Out of some 310,000 compounds screened, about 18,000 (5.8%) were called active. The inconclusive results got no clear call from the source; some entries with a clear call stand among them for comparison. Calls follow the shape of the dose curve; as a rule, active = well fitted inhibition curve with a large enough effect; inconclusive = small, poorly fitted or top-dose-only effect, or another doubt; inactive = no such curve, though single readings can be large or run the other way. Potencies of inconclusive entries are left out as doubtful fits.

Experiment: Primary qHTS for delayed death inhibitors of the malarial parasite plastid, 48 hour incubation
Details: P. falciparum luciferase growth in erythrocytes; series mostly up to 28.7 µM; activity change, negative = inhibition: at the top concentration
Summary of the method: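 Cell-based growth assay: transgenic P. falciparum expressing firefly luciferase, cultured in red cells within RPMI 1640 containing 0.5% w/v Albumax, 24 mM bicarbonate and gentamycin. A drop in luciferase activity indicates inhibition.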
% is scaled to controls: 0 for no effect and ±100 for the full control effect; potency is read from the fitted curve at half-maximal effect; tags tell the direction and shape of the fitted curve.

Row | Structure (SMILES) | Potency | activity change, negative = inhibition
1 | CCCc1ccc(OCc2nc(-c3ccc(NC(=O)c4cccs4)cc3)no2)cc1 | active: 1.85 µM | –
2 | CC(/C=C/c1cccs1)=C\C(=O)O | inconclusive [inhibitor, partial curve, poor fit] | –
3 | Cc1c(C(=O)OCC(=O)N2CC(=O)Nc3ccccc32)oc2ccc(Br)cc12 | – | inactive: -2.26%
4 | Cc1nc(N(CCO)C2CCCCC2)c2nnn(Cc3ccccc3)c2n1 | inconclusive [inhibitor, partial curve] | –
5 | O=C(CN1C(=O)S/C(=C\C=C\c2ccccc2)C1=O)Nc1cccc(O)c1 | inconclusive [inhibitor, single point] | –
6 | CC(=O)N1N=C(c2cccc([N+](=O)[O-])c2)OC1(C)CC(=O)Nc1ccccc1 (configuration not stated) | inconclusive [inhibitor, single point] | –
7 | Cc1ccc(C2Nc3ccccc3C(=O)N2Cc2ccco2)cc1 (configuration not stated) | inconclusive [inhibitor, partial curve] | –
8 | CC(C)(C)NC(=O)CCN(/N=C/c1ccncc1)C1=NS(=O)(=O)c2ccccc21 | inconclusive [inhibitor, partial curve, poor fit] | –
9 | COc1ccc(NS(=O)(=O)c2cc(NC(=O)/C=C/c3ccccc3OC)ccc2N2CCCCC2)cc1 | active: 1.04 µM | –
10 | CCOc1ccccc1-c1nnc(SCC(=O)NC2(C#N)CCCC2)o1 | inconclusive [inhibitor, single point] | –
11 | CCCCNC(=O)C1c2cc(OC)c(OC)cc2C(=O)N(C)C1c1ccc(OC)cc1 (configuration not stated) | inconclusive [inhibitor, single point] | –
12 | CCN(CCCn1c(SCC#N)nc2ccccc2c1=O)c1ccccc1 | inconclusive [inhibitor, partial curve] | –
13 | Cc1ccc(C)c(NC(=O)COc2cccc3c2CCN(Cc2ccccc2)C3=O)c1 | – | inactive: -15.6%
14 | O=C(N/N=C/c1ccc(Cl)s1)C(O)c1ccccc1 (configuration not stated) | – | inactive: 15%
15 | O=C(CN1C(=O)COc2ccccc21)NCCCN1CCN(Cc2ccccc2)CC1 | – | inactive: 9.56%
16 | COCC(C)n1c(C)cc(C(=O)COC(=O)c2ccc(N3CCCC3=O)cc2)c1C (configuration not stated) | inconclusive [inhibitor, single point] | –
17 | Cn1c(-c2ccccc2)c(C(=O)CCl)c2ccccc21 | inconclusive [inhibitor, single point] | –
18 | Cc1cc(NC(=O)c2ccc([N+](=O)[O-])o2)ccc1NC(=O)c1ccco1 | active: 8.28 µM | –
19 | CSc1ncc(CN2CCCCC2C(=O)Nc2ccc(Oc3ccccc3)nc2)cn1 (configuration not stated) | inconclusive [inhibitor, partial curve, poor fit] | –
20 | Cc1cc2ccc(C)c(C)c2nc1SCC(=O)c1cccs1 | inconclusive [inhibitor, single point] | –
21 | COc1cc(/C=N/Nc2cc(C)nc(NS(=O)(=O)c3ccccc3)n2)ccc1O | – | inactive: 9.94%

Row | Structure (SMILES) | Potency | activity change, negative = inhibition
22 | COc1ccc([C@H]2CC(=O)C=C(c3c(OC)cccc3OC)C2)cc1 | inconclusive [inhibitor, single point] | –
23 | CCCCNC(=S)N(C)/N=C/c1ccc2c(c1)OCO2 | – | inactive: 31.3%
24 | COc1cc(OC)c(OC)cc1CNCc1ccc2c(c1)OCO2 | – | inactive: 17.4%
25 | Clc1ccccc1CSc1nnc(/C=C/c2ccccc2)o1 | – | inactive: 10.8%
26 | CCCCc1cc(=O)oc2cc(OCC(=O)NCCN3CCOCC3)c(Cl)cc12 | – | inactive: -18.8%
27 | COc1cc(/C=N/Nc2nc(Nc3ccccc3)nc(N3CCOCC3)n2)ccc1OC(=O)c1ccco1 | inconclusive [inhibitor, single point] | –
28 | O=C(O)c1cc(O)c2c(c1)[C@@H]([C@H]1c3cc(C(=O)O)cc(O)c3C(=O)c3c(O[C@@H]4O[C@H](CO)[C@@H](O)[C@H](O)[C@H]4O)cccc31)c1cccc(OC3O[C@H](CO)[C@@H](O)[C@H](O)[C@H]3O)c1C2=O (some centres not stated) | inconclusive [inhibitor, partial curve] | –
29 | Cc1cccc(OCCCn2c(=O)sc3ccccc32)c1 | – | inactive: -3.6%
30 | CSCCC(NC(=O)c1ccccc1Cl)C(=O)NCC(c1ccco1)N1CCCCC1 (configuration not stated) | active: 14.7 µM | –
31 | CSc1nnc(SCC(=O)N(C)c2c(N)n(Cc3ccccc3)c(=O)[nH]c2=O)s1 | – | inactive: -17.5%
32 | CCOc1ccccc1-c1nc(CN2CCC(C(=O)N3CCOCC3)CC2)c(C)o1 | inconclusive [inhibitor, single point] | –
33 | CC(OC(=O)CNC(=O)c1ccc(Cl)c([N+](=O)[O-])c1)C(=O)NC1CCCCC1C (configuration not stated) | inconclusive [inhibitor, single point] | –
34 | COc1ccc(C(CNC(=O)CNC(=O)c2cccc(C)c2)N2CCOCC2)cc1 (configuration not stated) | inconclusive [inhibitor, single point] | –
35 | COc1ccc(C(=O)N2N=C(c3cccs3)CC2c2ccccc2O)cc1 (configuration not stated) | inconclusive [inhibitor, partial curve, poor fit] | –
36 | Cc1ccc(/C=C/S(=O)(=O)NCc2ccc(F)cc2)cc1 | active: 10.4 µM | –
37 | COc1ccc(OC)c(CCNC(=O)Cn2ccc3cc(S(=O)(=O)N4CCCC4)ccc32)c1 | inconclusive [inhibitor, partial curve, poor fit] | –
38 | CCc1ccc(CN(C)C(C)C(=O)Nc2ccc(S(=O)(=O)N3CCCC3)cc2)cc1 (configuration not stated) | inconclusive [inhibitor, partial curve, poor fit] | –
39 | Cc1ccc(C(=O)c2cc(C)sc2NC(=O)CN2CCN(C(=O)c3ccco3)CC2)cc1 | active: 1.31 µM | –
40 | O=C(CSc1nnc(-c2ccco2)o1)c1ccccc1 | inconclusive [inhibitor, single point] | –
41 | COc1ccc(CCNC(=O)C2CCN(S(=O)(=O)c3ccc(C)cc3)CC2)cc1OC | inconclusive [inhibitor, partial curve, poor fit] | –
42 | O=C(c1cccc(S(=O)(=O)N2CCOCC2)c1)N1CCC(Cc2ccccc2)CC1 | inconclusive [inhibitor, partial curve, poor fit] | –
